The structures appear in SMILES notation. This is one part of the list. Single values are uncertain, as repeats are few or missing.
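Also: cell number obtained by counting DAPI-stained nuclei in high-throughput microscope images with image analysis software, screen run in 1,536-well plates.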

This assay relates to 501Mel. The experiment in a line: cell count relative to DMSO control; melanoma cells; higher = more viable cells. As to conditions: library dose: low library concentration; 72 h.
`CCN(CC)CCNC(=O)c1c(C)[nH]c(/C=C2\C(=O)Nc3ccc(F)cc32)c1C` [sunitinib] + Clc1ccc(Nc2nnc(Cc3ccncc3)c3ccccc23)cc1 [vatalanib] (first compound 0.4 µM, partner dose 2 µM) gave a cell count of 18.1%.

In the case of `COc1cc([C@@H]2c3cc4c(cc3[C@@H](O[C@@H]3O[C@@H]5CO[C@@H](C)O[C@H]5[C@H](O)[C@H]3O)[C@H]3COC(=O)[C@H]23)OCO4)cc(OC)c1O` [etoposide] + Cn1c(Nc2ccc(C(F)(F)F)cc2)nc2cc(Oc3ccnc(-c4ncc(C(F)(F)F)[nH]4)c3)ccc21 [CHIR265] (first compound 0.02 µM, partner dose 0.08 µM), the cell count was 69.5%.

`CCN(CC)CCNC(=O)c1c(C)[nH]c(/C=C2\C(=O)Nc3ccc(F)cc32)c1C` [sunitinib] + O=C(O)[C@@H]1[O][Sb](=[O])([O][Sb]2(=[O])[O][C@H]([C@H](O)CO)[C@H](O)[C@H](C(=O)O)[O]2)[O][C@H]([C@H](O)CO)[C@@H]1O [stibogluconate] (first compound 0.4 µM, partner dose 2 µM) registered a cell count of 79.2%.

Regarding `COc1cc([C@@H]2c3cc4c(cc3[C@@H](O[C@@H]3O[C@@H]5CO[C@@H](C)O[C@H]5[C@H](O)[C@H]3O)[C@H]3COC(=O)[C@H]23)OCO4)cc(OC)c1O` [etoposide] + Cc1nc(Nc2ncc(C(=O)Nc3c(C)cccc3Cl)s2)cc(N2CCN(CCO)CC2)n1 [dasatanib] (first compound 0.02 µM, partner dose 0.004 µM), the cell count was found to be 85.8%.

Values taken from the supplement of paper PMC4604168 (melanoma cell lines).
